Reference: the supplement of paper PMC4967469

Experiments:
Experiment in all cases: Viability of human cancer cell lines after 72 h of drug (GDSC screen)
Midostaurin = compound: CO[C@@H]1[C@H](N(C)C(=O)c2ccccc2)C[C@H]2O[C@]1(C)n1c3ccccc3c3c4c(c5c6ccccc6n2c5c31)C(=O)NC4 [Midostaurin]; details: top dose 0.512 µM; top dose inferred
Procedure: (§1)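 Human cancer cell lines in 384-well plates, medium with 10% serum, drug for 72 h over a 256-fold dose range (nine 2-fold or five 4-fold steps up to the top dose). Adherent lines were fixed and stained with the nucleic acid dye Syto60, suspension lines read with resazurin; signal relative to control wells, capped at 0 and 100%. One two-parameter sigmoid per drug and line, fitted in a mixed model over all curves with the slope shared within a line.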

Mitomycin C = compound: CO[C@@]12[C@H](COC(N)=O)C3=C(C(=O)C(C)=C(N)C3=O)N1C[C@@H]1N[C@@H]12 [Mitomycin C]; details: top dose 16 µM
Procedure: as §1

Bosutinib = compound: COc1cc(Nc2c(C#N)cnc3cc(OCCCN4CCN(C)CC4)c(OC)cc23)c(Cl)cc1Cl [Bosutinib]; details: top dose 2 µM
Procedure: as §1

NVP-BHG712 = compound: Cc1ccc(C(=O)Nc2cccc(C(F)(F)F)c2)cc1Nc1nc(-c2cccnc2)nc2c1cnn2C [NVP-BHG712]; details: top dose 10.24 µM; top dose inferred
Procedure: as §1

IOX2 = compound: O=C(O)CNC(=O)c1c(O)c2ccccc2n(Cc2ccccc2)c1=O [IOX2]; details: top dose 0.1 µM; top dose inferred
Procedure: as §1

| Cell Line | AUC (Midostaurin) | IC50 (Midostaurin) [nM] | AUC (Mitomycin C) | IC50 (Mitomycin C) [nM] | AUC (Bosutinib) | IC50 (Bosutinib) [nM] | AUC (NVP-BHG712) | IC50 (NVP-BHG712) [nM] | AUC (IOX2) | IC50 (IOX2) [nM] |
| --- | --- | --- | --- | --- | --- | --- | --- | --- | --- | --- |
| LB831-BLC (bladder, adherent) | 0.777 | 209 | 0.5 | 998 | 0.978 | > 2000 | 0.978 | > 10200 | 0.85 | 78 |
| NCI-H810 (large cell lung carcinoma, adherent) | 0.822 | 283 | 0.265 | 221 | 0.981 | > 2000 | 0.926 | > 10200 | 0.987 | > 100 |
| ASH-3 (thyroid, adherent) | 0.885 | > 512 | 0.488 | 928 | 0.946 | > 2000 | 0.988 | > 10200 | 0.957 | > 100 |
| PANC-04-03 (pancreas, adherent) | 0.958 | > 512 | 0.518 | 1150 | 0.971 | > 2000 | 0.93 | > 10200 | 0.975 | > 100 |
| NCI-H292 (lung adenocarcinoma, adherent) | 0.898 | > 512 | 0.485 | 904 | 0.691 | 485 | 0.638 | 1670 | 0.776 | 48.9 |
| NCI-H1703 (lung adenocarcinoma, adherent) | 0.877 | > 512 | 0.361 | 378 | 0.796 | 1170 | 0.824 | 7940 | 0.978 | > 100 |
| DBTRG-05MG (glioma, adherent) | 0.889 | > 512 | 0.403 | 517 | 0.87 | > 2000 | 0.83 | 8030 | 0.946 | > 100 |
| HuCCT1 (biliary tract, adherent) | 0.765 | 208 | 0.481 | 883 | 0.904 | > 2000 | 0.954 | > 10200 | 0.982 | > 100 |
| MDA-MB-415 (breast, adherent) | 0.982 | > 512 | 0.45 | 696 | 0.983 | > 2000 | 0.979 | > 10200 | 0.832 | 96.6 |
| JEG-3 (urogenital system, adherent) | 0.975 | > 512 | 0.585 | 1670 | 0.965 | > 2000 | 0.991 | > 10200 | 0.99 | > 100 |
| BT-474 (breast, adherent) | 0.985 | > 512 | 0.631 | 2400 | 0.979 | > 2000 | 0.957 | > 10200 | 0.97 | > 100 |
| NCI-H1693 (lung adenocarcinoma, adherent) | 0.88 | > 512 | 0.489 | 917 | 0.758 | 1130 | 0.949 | > 10200 | 0.973 | > 100 |
| OE19 (oesophagus, adherent) | 0.96 | > 512 | 0.362 | 394 | 0.969 | > 2000 | 0.986 | > 10200 | 0.982 | > 100 |
| PCI-30 (head and neck, adherent) | 0.868 | > 512 | 0.751 | 6340 | 0.905 | > 2000 | 0.985 | > 10200 | 0.963 | > 100 |
| EW-7 (Ewing sarcoma, semi-adherent) | 0.9 | > 512 | 0.062 | < 62.5 | 0.972 | > 2000 | 0.89 | 9300 | 0.989 | > 100 |
| RERF-LC-KJ (lung adenocarcinoma, adherent) | 0.898 | > 512 | 0.453 | 743 | 0.891 | > 2000 | 0.949 | > 10200 | 0.975 | > 100 |
| SR (lymphoid neoplasm, suspension) | 0.868 | 391 | 0.059 | < 62.5 | 0.925 | > 2000 | 0.824 | 5300 | 0.987 | > 100 |
| CP50-MEL-B (melanoma, adherent) | 0.984 | > 512 | 0.478 | 874 | 0.988 | > 2000 | 0.72 | 2660 | 0.976 | > 100 |
| JHH-1 (liver, adherent) | 0.87 | > 512 | 0.426 | 614 | 0.812 | 1190 | 0.842 | 8110 | 0.973 | > 100 |
| UACC-893 (breast, adherent) | 0.982 | > 512 | 0.414 | 537 | 0.947 | > 2000 | 0.897 | > 10200 | 0.979 | > 100 |
| HMV-II (melanoma, adherent) | 0.88 | > 512 | 0.225 | 129 | 0.976 | > 2000 | 0.806 | 6660 | 0.937 | > 100 |
| 639-V (bladder, adherent) | 0.918 | > 512 | 0.074 | < 62.5 | 0.949 | > 2000 | 0.992 | > 10200 | 0.991 | > 100 |
| C3A (liver, adherent) | 0.905 | > 512 | 0.276 | 224 | 0.987 | > 2000 | 0.988 | > 10200 | 0.978 | > 100 |
| BHT-101 (thyroid, adherent) | 0.933 | > 512 | 0.582 | 1690 | 0.695 | 450 | 0.723 | 2810 | 0.96 | > 100 |
| SUP-M2 (anaplastic large cell lymphoma, suspension) | 0.957 | > 512 | 0.341 | 408 | 0.933 | > 2000 | 0.919 | 9080 | 0.994 | > 100 |

| Cell Line | AUC (Midostaurin) | IC50 (Midostaurin) [nM] | AUC (Mitomycin C) | IC50 (Mitomycin C) [nM] | AUC (Bosutinib) | IC50 (Bosutinib) [nM] | AUC (NVP-BHG712) | IC50 (NVP-BHG712) [nM] | AUC (IOX2) | IC50 (IOX2) [nM] |
| --- | --- | --- | --- | --- | --- | --- | --- | --- | --- | --- |
| M059J (glioma, adherent) | 0.828 | 351 | 0.24 | 165 | 0.985 | > 2000 | 0.936 | > 10200 | 0.975 | > 100 |
| HuO-3N1 (osteosarcoma, adherent) | 0.702 | 144 | 0.792 | 9930 | 0.94 | > 2000 | 0.979 | > 10200 | 0.98 | > 100 |
| NCI-H441 (lung adenocarcinoma, adherent) | 0.948 | > 512 | 0.146 | < 62.5 | 0.981 | > 2000 | 0.979 | > 10200 | 0.975 | > 100 |
| HCC1569 (breast, adherent) | 0.9 | > 512 | 0.447 | 684 | 0.977 | > 2000 | 0.946 | > 10200 | 0.978 | > 100 |
| SCC-4 (head and neck, adherent) | 0.807 | 323 | 0.359 | 377 | 0.915 | > 2000 | 0.943 | > 10200 | 0.972 | > 100 |
| JHH-4 (liver, adherent) | 0.731 | 145 | 0.417 | 591 | 0.938 | > 2000 | 0.736 | 3010 | 0.986 | > 100 |
| SW1271 (small cell lung carcinoma, adherent) | 0.706 | 135 | 0.568 | 1580 | 0.965 | > 2000 | 0.61 | 1350 | 0.968 | > 100 |
| OSC-20 (head and neck, adherent) | 0.788 | 272 | 0.222 | 129 | 0.851 | 1990 | 0.974 | > 10200 | 0.977 | > 100 |
| PE/CA-PJ15 (head and neck, adherent) | 0.933 | > 512 | 0.427 | 619 | 0.954 | > 2000 | 0.962 | > 10200 | 0.984 | > 100 |
| UMC-11 (lung carcinoid, adherent) | 0.937 | > 512 | 0.471 | 844 | 0.989 | > 2000 | 0.935 | > 10200 | 0.99 | > 100 |
| LK-2 (lung squamous cell carcinoma, adherent) | 0.814 | 260 | 0.382 | 485 | 0.979 | > 2000 | 0.968 | > 10200 | 0.986 | > 100 |
| IGR-37 (melanoma, adherent) | 0.797 | 217 | 0.153 | 97.2 | 0.837 | 1170 | 0.758 | 3270 | 0.986 | > 100 |
| H2369 (mesothelioma, adherent) | 0.857 | 439 | 0.528 | 1200 | 0.761 | 731 | 0.984 | > 10200 | 0.977 | > 100 |
| KURAMOCHI (ovary, adherent) | 0.842 | 448 | 0.387 | 463 | 0.977 | > 2000 | 0.897 | > 10200 | 0.892 | > 100 |
| EBC-1 (lung squamous cell carcinoma, adherent) | 0.892 | > 512 | 0.205 | 117 | 0.963 | > 2000 | 0.97 | > 10200 | 0.981 | > 100 |
| SUIT-2 (pancreas, adherent) | 0.911 | > 512 | 0.267 | 209 | 0.921 | > 2000 | 0.632 | 1510 | 0.985 | > 100 |
| EFM-19 (breast, adherent) | 0.692 | 148 | 0.604 | 2230 | 0.945 | > 2000 | 0.859 | > 10200 | 0.974 | > 100 |
| WM1552C (melanoma, adherent) | 0.853 | 403 | 0.222 | 154 | 0.988 | > 2000 | 0.988 | > 10200 | 0.961 | > 100 |
| NCI-H2444 (non-small cell lung carcinoma, adherent) | 0.988 | > 512 | 0.81 | 9890 | 0.976 | > 2000 | 0.913 | > 10200 | 0.983 | > 100 |
| PC-3 [JPC-3] (lung adenocarcinoma, adherent) | 0.924 | > 512 | 0.575 | 1720 | 0.78 | 1110 | 0.869 | > 10200 | 0.968 | > 100 |
| DMS-53 (small cell lung carcinoma, adherent) | 0.98 | > 512 | 0.433 | 649 | 0.983 | > 2000 | 0.988 | > 10200 | 0.967 | > 100 |
| Hs633T (fibrosarcoma, adherent) | 0.561 | 45.5 | 0.233 | 202 | 0.844 | 1070 | 0.875 | 7020 | 0.99 | > 100 |
| TE-11 (oesophagus, adherent) | 0.811 | 243 | 0.158 | 102 | 0.921 | > 2000 | 0.982 | > 10200 | 0.989 | > 100 |
| SNU-387 (liver, adherent) | 0.7 | 127 | 0.623 | 2300 | 0.904 | > 2000 | 0.836 | 8140 | 0.954 | > 100 |
| H2731 (mesothelioma, adherent) | 0.883 | > 512 | 0.701 | 4030 | 0.923 | > 2000 | 0.776 | 4680 | 0.875 | > 100 |

Lines with a small IC50 respond at low doses; a fit beyond the top or the lowest dose is shown as a bound at that dose. For AUC the same curve is integrated over the 256-fold range of doses and scaled to a fraction: 1 means no effect, lower means more sensitive. For some assays here: The top dose, if marked as inferred, is not printed in the source and was worked back from the curve model.
